{"source": "PubChem BioAssay AID504333", "about": "(National Center for Advancing Translational Sciences (NCATS), 2011)", "note": "The whole screen tested about 360,000 compounds, of which about 16,000 (4.4%) were called active. Inconclusive means that the source gave no clear call. Such entries were picked first, then a sample of the others. Calls follow the shape of the dose curve; as a rule, active = well fitted inhibition curve with a large enough effect; inconclusive = small, poorly fitted or top-dose-only effect; inactive = no such curve, though single readings can be large or run the other way. Where the call is inconclusive, the potency comes from a doubtful curve fit. Potency is read from the fitted curve at half-maximal effect; tags tell the direction and shape of the fitted curve."}
{"target": "Bromodomain adjacent to zinc finger domain protein 2B (Homo sapiens) (UniProt Q9UIF8)", "sequence (Q9UIF8 whole entry, looked up, the tested form may be a part)": "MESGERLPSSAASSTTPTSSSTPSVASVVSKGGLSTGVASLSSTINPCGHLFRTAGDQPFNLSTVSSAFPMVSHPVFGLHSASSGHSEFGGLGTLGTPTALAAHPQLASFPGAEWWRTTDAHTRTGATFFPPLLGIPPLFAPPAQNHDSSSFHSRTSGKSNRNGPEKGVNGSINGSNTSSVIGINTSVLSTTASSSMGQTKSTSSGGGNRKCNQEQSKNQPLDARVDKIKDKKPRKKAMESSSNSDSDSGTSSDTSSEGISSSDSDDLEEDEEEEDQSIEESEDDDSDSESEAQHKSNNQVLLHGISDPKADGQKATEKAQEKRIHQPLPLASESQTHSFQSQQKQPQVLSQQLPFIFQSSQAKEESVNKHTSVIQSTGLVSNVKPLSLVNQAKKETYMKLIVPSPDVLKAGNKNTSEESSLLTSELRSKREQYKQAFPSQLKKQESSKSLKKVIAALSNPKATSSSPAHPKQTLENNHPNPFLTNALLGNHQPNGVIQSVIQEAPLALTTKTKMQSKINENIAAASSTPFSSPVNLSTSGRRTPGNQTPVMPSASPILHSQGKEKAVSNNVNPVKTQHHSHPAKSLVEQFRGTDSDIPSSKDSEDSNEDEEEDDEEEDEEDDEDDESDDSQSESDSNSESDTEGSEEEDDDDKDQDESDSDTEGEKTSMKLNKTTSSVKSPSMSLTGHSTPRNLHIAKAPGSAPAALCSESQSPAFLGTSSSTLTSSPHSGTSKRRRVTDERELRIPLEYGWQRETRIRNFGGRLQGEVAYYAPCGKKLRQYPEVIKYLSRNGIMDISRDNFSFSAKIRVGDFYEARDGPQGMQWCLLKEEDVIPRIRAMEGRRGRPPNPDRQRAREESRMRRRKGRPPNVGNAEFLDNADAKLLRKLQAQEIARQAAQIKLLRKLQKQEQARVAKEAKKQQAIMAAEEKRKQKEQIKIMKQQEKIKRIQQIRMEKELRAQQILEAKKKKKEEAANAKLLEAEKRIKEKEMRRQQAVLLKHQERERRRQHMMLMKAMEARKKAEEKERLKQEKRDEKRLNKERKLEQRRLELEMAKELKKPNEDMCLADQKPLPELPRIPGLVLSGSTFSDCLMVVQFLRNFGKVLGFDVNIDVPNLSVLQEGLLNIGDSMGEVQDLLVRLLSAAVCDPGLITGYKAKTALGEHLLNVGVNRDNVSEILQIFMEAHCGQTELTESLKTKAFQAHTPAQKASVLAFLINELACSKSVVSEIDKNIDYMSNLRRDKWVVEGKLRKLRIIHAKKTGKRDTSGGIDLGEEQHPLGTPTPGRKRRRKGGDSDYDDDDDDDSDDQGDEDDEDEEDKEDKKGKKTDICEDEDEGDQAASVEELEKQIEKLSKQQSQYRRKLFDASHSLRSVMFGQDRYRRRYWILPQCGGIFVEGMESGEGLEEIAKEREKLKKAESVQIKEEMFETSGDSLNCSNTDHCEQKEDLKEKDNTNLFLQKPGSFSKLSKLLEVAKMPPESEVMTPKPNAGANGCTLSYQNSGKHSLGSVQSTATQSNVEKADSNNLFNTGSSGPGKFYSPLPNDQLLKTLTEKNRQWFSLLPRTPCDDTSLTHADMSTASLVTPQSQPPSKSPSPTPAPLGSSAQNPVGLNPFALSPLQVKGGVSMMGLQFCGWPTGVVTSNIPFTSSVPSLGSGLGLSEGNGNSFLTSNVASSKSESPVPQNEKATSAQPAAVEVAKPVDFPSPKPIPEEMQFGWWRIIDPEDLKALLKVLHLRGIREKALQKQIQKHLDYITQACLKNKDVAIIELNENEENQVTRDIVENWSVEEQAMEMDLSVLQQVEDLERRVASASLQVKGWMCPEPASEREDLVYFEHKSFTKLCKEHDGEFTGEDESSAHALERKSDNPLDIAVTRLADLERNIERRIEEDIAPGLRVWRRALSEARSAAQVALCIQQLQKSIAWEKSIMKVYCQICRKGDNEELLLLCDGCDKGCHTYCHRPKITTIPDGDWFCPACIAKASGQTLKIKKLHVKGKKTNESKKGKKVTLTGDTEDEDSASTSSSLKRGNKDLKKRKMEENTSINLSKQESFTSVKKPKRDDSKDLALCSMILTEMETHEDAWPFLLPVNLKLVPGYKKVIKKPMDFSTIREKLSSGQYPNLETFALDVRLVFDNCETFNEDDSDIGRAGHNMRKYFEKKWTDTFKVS", "assay": "qHTS Assay for Inhibitors of BAZ2B; also: nearly all actives have a fitted effect of over 60% in size", "conditions": "AlphaScreen BAZ2B-H3K14Ac peptide displacement; series mostly up to 114 µM", "in_short": "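AlphaScreen displacement of biotin-H3(5-23)K14Ac peptide (50 nM final) from BAZ2B (50 nM final) in PBS pH 7.4, 0.01% Tween-20; complex preformed 30 min RT, then compounds (top 110 uM) 30 min RT, beads 20 min dark.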"}
{"smiles": "COc1ccc(NC(=S)N2CCN(Cc3ccccc3)CC2)c(OC)c1", "Potency": "inconclusive: 79.4 µM [inhibitor, single point]"}
{"smiles": "COC(=O)c1cccc(-c2ccc(C(c3c(C)[nH][nH]c3=O)c3c(C)[nH][nH]c3=O)o2)c1", "Potency": "active: 39.8 µM"}
{"smiles": "CCOC(=O)/C(C#N)=C/C=C1\\C=Cc2ccccc2N1CC", "Potency": "inconclusive: 7.94 µM [inhibitor, full curve]"}
{"smiles": "Cc1ccc(C(=O)NC(=S)N2CCN(c3ccc([N+](=O)[O-])cc3)CC2)cc1", "Potency": "inactive"}
{"smiles": "O=C(CNCCC1=CCCCC1)Nc1ccc(N2CCCCCC2)cc1", "Potency": "active: 12.6 µM"}
{"smiles": "C/C(O)=C(\\C#N)c1nc2ccccc2[nH]1", "Potency": "inconclusive: 79.4 µM [inhibitor, single point]"}
{"smiles": "CCc1ccc(-n2nc3cc(C)c(N)cc3n2)cc1", "Potency": "active: 31.6 µM"}
{"smiles": "CCC(C)Sc1nc2c(c(=O)[nH]c(=O)n2C)n1Cc1ccccc1Cl", "note": "(configuration not stated)", "Potency": "inactive"}
{"smiles": "Cc1ccc(CN(C(=O)COc2ccccc2Cl)c2ccccn2)o1", "Potency": "inconclusive: 89.1 µM [inhibitor, single point]"}
{"smiles": "CSc1ncccc1C(=O)Nc1cccc(C)n1", "Potency": "inconclusive: 100 µM [inhibitor, single point]"}
{"smiles": "COc1ccc(Nc2c3c(nc4ccccc24)CCC3)cc1Cl", "Potency": "inconclusive: 79.4 µM [inhibitor, partial curve]"}
{"smiles": "CC1CCN(S(=O)(=O)c2ccc(C(=O)Nc3nnc(C4CC4)o3)cc2)CC1", "Potency": "active: 50.1 µM"}
{"smiles": "CN(Cc1ccccc1)C(=O)c1ccc(CSc2nc3cccnc3n2Cc2ccccc2F)cc1", "Potency": "active: 25.1 µM"}
{"smiles": "COc1ccc(CCN2C(=O)C(O)=C(C(=O)c3ccco3)C2c2cccs2)cc1OC", "note": "(configuration not stated)", "Potency": "inconclusive: 89.1 µM [inhibitor, single point]"}
{"smiles": "Cc1ccc(C)c(-c2nnc(OCC(=O)Nc3cc(C)on3)c3ccccc23)c1", "Potency": "inconclusive: 79.4 µM [inhibitor, single point]"}
{"smiles": "O=C(CNC(=O)/C=C/c1ccco1)N=Nc1c(O)[nH]c2ccccc12", "Potency": "active: 56.2 µM"}
{"smiles": "COc1cccc(/C=C/c2nc(C#N)c(N3CCC(C(N)=O)CC3)o2)c1", "Potency": "inactive"}
{"smiles": "O=C1CCNCCN1[C@H](CO)Cc1ccccc1", "Potency": "inconclusive: 89.1 µM [inhibitor, single point]"}
{"smiles": "CC(=O)Nc1ccc(Nc2cc(C)nc3c(-c4ccccc4)cnn23)cc1", "Potency": "inactive"}
{"smiles": "CC1CCCN(S(=O)(=O)CCNC(=O)c2ccccc2)C1", "note": "(configuration not stated)", "Potency": "inactive"}
{"smiles": "CC1=NN(c2ccccc2)C(=O)C1N=Nc1ccc(C)cc1", "note": "(configuration not stated)", "Potency": "inconclusive: 28.2 µM [inhibitor, partial curve]"}
{"smiles": "CCCCCCC(=O)Nc1c(O)c2ccccc2[nH]c1=O", "Potency": "inconclusive: 89.1 µM [inhibitor, single point]"}
{"smiles": "CCN(CC(=O)Nc1ccc2c(c1)OCCO2)CC(=O)Nc1ccc2c(c1)OCO2", "Potency": "inconclusive: 79.4 µM [inhibitor, single point]"}
{"smiles": "CCn1nnnc1NCc1ccc(OCc2c(F)cccc2Cl)c(OC)c1", "Potency": "inconclusive: 100 µM [inhibitor, partial curve]"}
{"smiles": "CCc1ccccc1N(CC(=O)NC(C)C)C(=O)CCC(=O)Nc1nccs1", "Potency": "inconclusive: 89.1 µM [inhibitor, single point]"}
{"smiles": "COc1cccc2sc(N(CCN(C)C)C(=O)c3ccc(S(=O)(=O)N4CCCC4)cc3)nc12", "Potency": "inactive"}
{"smiles": "Cc1nnsc1C(=O)NC1CCCc2c1cnn2-c1cc(F)cc(F)c1", "note": "(configuration not stated)", "Potency": "inactive"}
{"smiles": "Nc1ccc(N2CCCCCC2)cc1", "Potency": "active: 31.6 µM"}
{"smiles": "CCc1nnc(NS(=O)(=O)c2ccc(NC(=O)/C=C/c3ccccc3Cl)cc2)s1", "Potency": "inconclusive: 50.1 µM [inhibitor, partial curve]"}
{"smiles": "O=C(CO)N/N=C/c1ccccc1F", "Potency": "inactive"}
{"smiles": "O=C(CSc1nccn1Cc1ccc(F)cc1)Nc1nc2ccccc2s1", "Potency": "inconclusive: 39.8 µM [inhibitor, partial curve]"}
{"smiles": "CCN(Cc1ccccc1)C(=O)C1CCN(S(=O)(=O)c2ccc3c(c2)CCCN3C(C)=O)CC1", "Potency": "inactive"}
{"smiles": "CCc1ccc(CNC(=O)CCc2c(C)nn(-c3ccc(N4CCCC4)nn3)c2C)cc1", "Potency": "inconclusive: 79.4 µM [inhibitor, single point]"}
{"smiles": "CCCCC(=O)NC(c1ccccc1OC)c1ccc2cccnc2c1O", "note": "(configuration not stated)", "Potency": "inconclusive: 20 µM [inhibitor, full curve]"}
{"smiles": "CCN(CC)c1cc(C)c2cc(NC(=O)/C=C/c3cc(OC)c(OC)c(OC)c3)ccc2n1", "Potency": "inconclusive: 22.4 µM [inhibitor, full curve]"}
{"smiles": "CCOC(=O)CN1C(=O)S/C(=C/c2ccc(O)c([N+](=O)[O-])c2)C1=O", "Potency": "inconclusive: 79.4 µM [inhibitor, single point]"}
{"smiles": "CCCCN(C)S(=O)(=O)c1ccc(C(=O)Nc2nnc(-c3cccs3)o2)cc1", "Potency": "inconclusive: 89.1 µM [inhibitor, single point]"}
{"smiles": "COc1ccc(CN2C(=O)c3cccnc3C2=O)cc1S(=O)(=O)N1CCCC(C)C1", "note": "(configuration not stated)", "Potency": "active: 56.2 µM"}
{"smiles": "O=C(NC(=S)Nc1cccc2cc(O)ccc12)c1ccco1", "Potency": "inconclusive: 89.1 µM [inhibitor, single point]"}
{"smiles": "Cc1cccc(Cl)c1OCCN1CCCC1", "Potency": "inconclusive: 89.1 µM [inhibitor, single point]"}
{"smiles": "CN(C(=O)Cn1nc(C(=O)O)c2ccccc2c1=O)C1(C#N)CCCCC1", "Potency": "inactive"}
{"smiles": "CC12CCC(=O)N1C(C(=O)Nc1cc(Cl)ccc1N1CCCC1)CS2", "note": "(configuration not stated)", "Potency": "inactive"}
{"smiles": "O=C1C2C3C=CC(C3)C2C(=O)N1CCCCCCN1C(=O)C2C3C=CC(C3)C2C1=O", "note": "(configuration not stated)", "Potency": "inconclusive: 31.6 µM [inhibitor, partial curve]"}
{"smiles": "COc1ccccc1N1C(=O)C2C(c3ccc(F)cc3)NN(C(=O)c3ccc(C)cc3)C2C1=O", "note": "(configuration not stated)", "Potency": "inconclusive: 79.4 µM [inhibitor, single point]"}
{"smiles": "Oc1ccccc1/C=N/NC1=NCCCCC1", "Potency": "inactive"}
{"smiles": "O=C(Oc1ccc(Br)cc1C(=S)N1CCCCC1)c1cc([N+](=O)[O-])cc([N+](=O)[O-])c1", "Potency": "inconclusive: 39.8 µM [inhibitor, partial curve]"}
{"smiles": "CC1CCc2[nH]c3ccc(C(=O)N(C)CC(=O)Nc4ccccc4Cl)cc3c2C1", "note": "(configuration not stated)", "Potency": "inconclusive: 50.1 µM [inhibitor, partial curve]"}
{"smiles": "COc1ccc(Br)cc1CN1CCCCCC1", "Potency": "inconclusive: 50.1 µM [inhibitor, partial curve]"}
{"smiles": "CCCC(=O)Nc1c(C(=O)OCC)[nH]c2ccccc12", "Potency": "inactive"}
{"smiles": "CCCN(C(=O)c1ccco1)c1nnc(-c2cccc(C)c2)s1", "Potency": "inconclusive: 79.4 µM [inhibitor, single point]"}
{"smiles": "Cn1ccnc1SCC(=O)c1ccc2ccccc2c1", "Potency": "inconclusive: 56.2 µM [inhibitor, partial curve]"}
{"smiles": "Cc1cccc(OCCNc2cc(N3CCN(C)CC3)ccc2[N+](=O)[O-])c1", "Potency": "inconclusive: 89.1 µM [inhibitor, single point]"}
{"smiles": "CC1CC(=S)Nc2ccccc2N1C(=O)Nc1ccccc1", "note": "(configuration not stated)", "Potency": "inconclusive: 89.1 µM [inhibitor, single point]"}
{"smiles": "COc1ccc(NC(=O)c2ccco2)cc1NC(=O)C(C)(C)Oc1ccc(Cl)cc1", "Potency": "inconclusive: 28.2 µM [inhibitor, full curve]"}
{"smiles": "CC1Cc2ccccc2N1CC(=O)Nc1ccc(S(=O)(=O)N(C)C)cc1", "note": "(configuration not stated)", "Potency": "inconclusive: 79.4 µM [inhibitor, single point]"}
{"smiles": "COc1cc(C(=S)N2CCOCC2)cc(OC)c1OC(=O)c1ccc([N+](=O)[O-])cc1[N+](=O)[O-]", "Potency": "inconclusive: 12.6 µM [inhibitor, partial curve]"}
{"smiles": "CCCNC(=O)c1ccc(N2CCC3(CC2)CC(c2ccccc2)=NO3)c(NC(=O)c2cccc(OC)c2)c1", "Potency": "inconclusive: 56.2 µM [inhibitor, partial curve]"}
{"smiles": "O=C(CN(c1ccccc1)S(=O)(=O)c1ccccc1)N1CCN(Cc2ccc3c(c2)OCO3)CC1", "Potency": "inconclusive: 2.51 µM [inhibitor, single point]"}
{"smiles": "CNc1ccc(Br)cc(C(=O)/C=C/c2cccc(OC)c2)c1=O", "Potency": "active: 44.7 µM"}
{"smiles": "O=C(NCC(=O)N1CCCCCCC1)c1cccc([N+](=O)[O-])c1", "Potency": "inactive"}
{"smiles": "CCNC(=O)COC(=O)c1cc(-c2ccc(OC)cc2)nc2ccccc12", "Potency": "inactive"}
{"smiles": "O=C(CN1C(=O)COc2ccc(S(=O)(=O)Nc3ccccc3)cc21)Nc1cccc(Cl)c1", "Potency": "inactive"}
{"smiles": "O=C(O)/C=C\\C(=O)Nc1ccccc1C(=O)N1CCN(c2ccc(Cl)cc2)CC1", "Potency": "inactive"}
{"smiles": "Cc1cc(C(=O)COC(=O)CCCN2C(=O)c3ccccc3C2=O)c(C)n1C", "Potency": "inconclusive: 89.1 µM [inhibitor, single point]"}
{"smiles": "O=C(c1cccs1)n1nc(-c2ccco2)nc1SCc1ccccc1", "Potency": "inactive"}
{"smiles": "Clc1ccc(-c2nnc(NCCN3CCCC3)c3ccccc23)cc1", "Potency": "inconclusive: 79.4 µM [inhibitor, single point]"}
{"smiles": "CC1CCCN(c2ccc(C(=O)Nc3ccc4c(c3)OCO4)cc2[N+](=O)[O-])C1", "note": "(configuration not stated)", "Potency": "inconclusive: 28.2 µM [inhibitor, full curve]"}
{"smiles": "CCOc1cc2c(cc1/C=C(/C#N)c1ccc(C(=O)O)cc1)OCO2", "Potency": "inconclusive: 79.4 µM [inhibitor, partial curve]"}
{"smiles": "COc1ccc(-c2csc(NC(=O)CSc3nnc(Nc4ccccc4C)s3)n2)cc1", "Potency": "inactive"}
{"smiles": "O=C(C1CC1)N1CCN(c2ccc([N+](=O)[O-])cc2-n2cccc2)CC1", "Potency": "active: 44.7 µM"}
{"smiles": "CSc1nc2ccc(NC(=O)c3ccc(=O)[nH]c3)cc2s1", "Potency": "inactive"}
{"smiles": "COc1ccc(NS(=O)(=O)c2ccc(N3CCOCC3)c(NC(=O)c3ccc(F)cc3)c2)cc1", "Potency": "inactive"}
